From ChEMBL document CHEMBL4888484, “Replenishing the malaria drug discovery pipeline: Screening and hit evaluation of the MMV Hit Generation Library 1 (HGL1) against asexual blood stage Plasmodium falciparum ,using a nano luciferase reporter read-out” (2022)
The whole screen tested about 150,000 compounds, of which about 540 (0.36%) showed an effect of 50% or more. This is one part of the list.

Test system: Plasmodium falciparum
Test: Primary screen in NF54 nanoGlo assay, in single point, at 2uM, 72h; a lower Z score goes with more inhibition
Assay type: functional, Erythrocyte
Conditions: timepoint 72 hour

| SMILES | % Inhibition [%] | Z score |
| --- | --- | --- |
| COc1ccc(C(=O)N[C@@H]2CCC[C@@H]2C(=O)N2CCN(c3ccc(Cl)cc3)CC2)cn1 | -14 | 1.84 |
| CN(C(=O)[C@H]1CCC(=O)N(C2CCCC2)C1)C(C1CC1)C1CC1 | -2 | 0.26 |
| O=C(Cn1cnc2ccccc21)NCc1cccnc1-c1ccsc1 | 1 | -0.16 |
| COc1ccc(OC[C@@H](O)CN2CCC(O)CC2)c(CNCCn2cccn2)c1 | 1 | -0.08 |
| CCN(C[C@H](C)C#N)C(=O)CN(C)C1CCCCC1 | -11 | 1.22 |
| C[C@@H](CN(C)C(=O)c1ccc(Oc2ccccc2)o1)c1nnn[nH]1 | 7 | -1 |
| O=C(Nc1cccc2c1CCC2)[C@@H]1CN(C(CO)CO)CCO1 | -4 | 0.75 |
| CN1CCCC1=NS(=O)(=O)c1cccc(N)c1 | -2 | 0.23 |
| CCc1nnc(CN(C)C(=O)NC(C2CC2)C2CC2)o1 | 10 | -1.31 |
| COCCCNC(=O)c1cnn2c(-c3ccc(-c4ccccc4)cc3)ccnc12 | 0 | 0.04 |
| O=C(COc1ccc(-n2cccn2)nn1)Nc1cccnc1 | -5 | 0.87 |
| CNc1cc(C)nc(-c2cccc(C(=O)N3CCS(=O)(=O)CC3)c2)n1 | 7 | -0.96 |
| CC[C@H]1CN(c2ccc3nnnn3n2)CCO1 | 0 | -0.04 |
| CC(C)(CN1CCCCCC1)NC(=O)[C@H]1CC[C@@H](O)CC1 | 5 | -0.94 |
| CC(=O)NCc1ccc(-c2noc(-c3cccnc3)n2)s1 | 0 | 0.01 |
| COc1cc([C@H](C)NC(=O)c2c[nH]c(C(F)(F)F)c2)ccn1 | -6 | 0.74 |
| Cc1cc(N2CCCC2)nc(N2CCN(C(=O)CCC3CCCCC3)CC2)n1 | -1 | 0.26 |
| Cc1cccc2c(N3CCCC3)nc(CNS(=O)(=O)N(C)C)nc12 | 0 | -0.01 |
| CNC(=O)C1CCCN(C(=O)C2CCC=CO2)C1 (stereo not drawn) | 4 | -0.79 |
| COC(=O)[C@H](C)N(C(=O)CC1CCCCC1)c1c(C)cccc1C | -13 | 2.46 |
| COc1ccc(NC(=O)C(=O)c2cccn2Cc2ccc(C)c(C)c2)cc1Cl | -9 | 1.08 |

| SMILES | % Inhibition [%] | Z score |
| --- | --- | --- |
| CS(=O)(=O)c1ccc(NC(=O)c2nnn(-c3ccccc3)n2)cc1 | -16 | 3.04 |
| COC1(C(=O)Nc2ccn(-c3ccncc3)n2)CCCCC1 | -12 | 1.53 |
| CCCN(CC(=O)N(Cc1ccc(Cl)cc1)C1CCN(C(=O)NCC)CC1)S(=O)(=O)c1ccc(C)cc1 | -16 | 2.17 |
| CCNC(=O)N(C)c1cccc(NC(=O)N2C3CCC2CC2(CC2)C3)c1 | 26 | -2.89 |
| N#Cc1cnn(C(=O)[C@@H]2CCN(c3cc(F)cc(F)c3)C2=O)c1N | -1 | 0.22 |
| CC[C@H]1CCN(Cc2ccc(C(F)(F)F)nc2)C1 | -7 | 0.7 |
| C[C@@H](C(=O)N1CCC2(CCc3ccccc3O2)CC1)n1cnc2c(N)ncnc21 | 8 | -0.94 |
| C=C(C)CN(C)CC(=O)Nc1ccc(F)cc1Cl | 0 | 0.05 |
| O=S(=O)(NCC1(OCCO)CCCC1)c1ccc(-n2cccn2)cc1 | 7 | -0.76 |
| O=C(Nc1cc(F)c(F)c(F)c1)N1CCC(n2ccnn2)CC1 | -7 | 0.67 |
| Cc1ccnc2sc(C(=O)N3COCC3(C)C)c(C)c12 | -9 | 1.13 |
| CCOc1cc2c(cc1CN1Cc3[nH]cnc3C[C@H]1C(=O)O)CCC2 | -3 | 0.54 |
| O=C(NCCCOCC(F)(F)F)NC1CCCC2OCCC12 (stereo not drawn) | -14 | 1.44 |
| CC(C)(C)NS(=O)(=O)Cc1cccc(NCc2cccs2)c1 | -8 | 1.12 |
| Cc1noc(C)c1C(=O)N1CCc2cc(Br)ccc21 | 12 | -2.07 |
| CCOc1ccc(NS(=O)(=O)c2ccc3c(c2)OCCCO3)cc1S(=O)(=O)N1CCCCC1 | -5 | 0.85 |
| Cc1nc(CC(=O)N[C@@H](C)c2ccccc2)sc1C(=O)NCC(C)C | -3 | 0.38 |
| Fc1cccc(-c2noc(C3(c4ccc(Cl)cc4)CCOCC3)n2)c1 | -1 | 0.26 |
| Cn1ncc2c(=O)[nH]c(CN3CCO[C@@H](CCCc4ccccc4)C3)nc21 | -1 | 0.11 |
| Cc1n[nH]c(C)c1[C@H](C)NC(=O)c1cccn1C(C)C | -17 | 1.81 |
| O=C(NCc1ccco1)C(=Cc1ccc(Cl)c(Cl)c1)C(=O)NCc1ccco1 | -3 | 0.44 |

| SMILES | % Inhibition [%] | Z score |
| --- | --- | --- |
| Cc1nc(N2CCC[C@H](NCc3ccc(F)cc3F)CC2)nc2ccc(F)cc12 | 10 | -1.38 |
| O=C(Nc1cnc(-n2ccnc2)nc1)c1ccc(F)cc1 | -18 | 2.84 |
| O=C(c1cc2nc(-c3ccco3)cc(C(F)(F)Cl)n2n1)N1CCCc2ccccc21 | -13 | 1.66 |
| Cc1ccc(-c2ccnn2C)cc1NC(=O)NCc1ccccn1 | -11 | 1.06 |
| CCN(CC)S(=O)(=O)NCc1ccnc(OC)c1 | -7 | 1.32 |
| C[C@@H](c1cccnc1)N(CC1CCOCC1)S(=O)(=O)c1cncc(Cl)c1 | 9 | -0.88 |
| CC(C)Cc1cc(C(=O)NCCc2nnc3ccccn23)cc(O)n1 | -26 | 3.27 |
| Cc1c[nH]c(C(=O)N2CC[C@@]3(CCCN(CCCc4ccccc4)C3)C2)n1 | -10 | 1.61 |
| O=C(NCc1cncc(C2CC2)c1)c1ccncc1F | -8 | 0.92 |
| CC(C)(C)N1CC2(O)OCCC2(C)C1=O (stereo not drawn) | 29 | -3.27 |
| C[C@H]1CNC(=O)CCN1C(=O)c1cc(Cn2cnc3ccccc32)[nH]n1 | -13 | 1.44 |
| Cn1c(C(=O)N2CCC3(CC2)C[C@H](O)c2ccccc2O3)c[nH]c1=O | -11 | 2.06 |
| COc1ncccc1-c1cc(C)ccc1N1CCOC1=O | -18 | 2.26 |
| C=CCN(CC(F)(F)F)C(=O)c1ccnc(C(=O)O)c1 | -18 | 2.15 |
| Cc1nc(C2CCCC2)n(C[C@H]2COCCO2)n1 | -7 | 1.37 |
| CC(C)CCN(C(=O)[C@H]1CCN(C)C(=O)C1)C1CC1 | -20 | 3.18 |
| CCN1CCC[C@@H]1CNC(=O)c1cccc(-c2nc(C)cc(NC)n2)c1 | 10 | -1.31 |
| NC(=O)CCn1cc(/C=C/C2CCCCC2)cn1 | -6 | 1.16 |
| CCOc1ncccc1C(=O)N(C)[C@H]1CCCN(C(=O)c2cnnn2CC)C1 | -10 | 1.52 |
| CCc1nc(CN(C)Cc2cnc(N(C)C)s2)no1 | -5 | 0.75 |
| COc1ccc2[nH]c([C@H]3CCN(Cc4ccccn4)C3)nc2c1 | 16 | -1.91 |

| SMILES | % Inhibition [%] | Z score |
| --- | --- | --- |
| Cc1cnc(CN2C[C@]3(CCCN(C(=O)c4ccon4)C3)CCC2=O)cn1 | -6 | 1.02 |
| O=C(Nc1cccc(NC(=O)c2cccnc2)n1)c1cccnc1 | 30 | -3.84 |
| Cc1oc2ncn(C)c(=O)c2c1C(=O)N1CCN(c2ccccc2)CC1 | -8 | 1.55 |
| COc1cccc(-c2nc(S(=O)(=O)c3ccc4c(c3)OCCO4)c(NCc3cccnc3)o2)c1 | -4 | 0.55 |
| Cc1ccc([C@H](CCO)NC(=O)CCn2nnnc2C)cc1 | -10 | 1.98 |
| COc1ccc(CNC(=O)[C@@H]2OCCN(C)[C@H]2c2ccccc2)c(OC)c1 | -9 | 1.63 |
| Brc1ccc(-c2nc3ccc(Cc4ccc5nc(-c6ccc(Br)cc6)c(-c6ccc(Br)cc6)nc5c4)cc3nc2-c2ccc(Br)cc2)cc1 | -9 | 1.53 |
| O=C(Nc1ccccc1)Nc1nccn(-c2ccc(Br)cc2)c1=O | -2 | 0.3 |
| Cc1nsc(N2CCCC[C@H](N3CCCC3)C2)n1 | -12 | 1.49 |
| Cn1ccc(C(=O)Nc2cc(F)ccc2N2CCCCC2)cc1=O | -12 | 1.55 |
| CCOc1ccc(OCc2nc(CNC(=O)N(C)C)n(C(C)C)n2)cc1 | -6 | 0.86 |
| CC[C@@H](C(=O)Nc1cccc(Cl)c1)n1nc(-c2ccc(OC)cc2)c2c(C)onc2c1=O | -2 | 0.25 |
| COc1ccccc1Cc1n[nH]c([C@H]2CC23CCC3)n1 | -5 | 0.67 |
| CCN1CC(=O)N(c2cc(-c3cccnc3)ccc2C)C1=O | 0 | -0.01 |
| O=C(O)c1nnn2c1CO[C@H](c1ccccc1)C2 | -4 | 0.45 |
| CCn1ncnc1[C@H](C)NC(=O)Cc1cc(C)no1 | -24 | 2.2 |
| Cc1cnc(CN2C[C@]3(CCCN(S(=O)(=O)C4CC4)C3)CCC2=O)cn1 | -15 | 1.96 |
| CCc1nnc(CNC(=O)N(Cc2ccccc2OC)C2CC2)s1 | 1 | -0.16 |
| COc1ccc(-c2ncc(C(=O)N3CCC(C)CC3)c(N3CCC(Cc4ccccc4)CC3)n2)cc1 | -15 | 1.69 |
| Cc1ccc(N(C)Cc2nc(CC(C)C)no2)c(C)c1 | -6 | 0.59 |
| COc1ccsc1CNc1ccc2[nH]ncc2c1 | 35 | -1.06 |
